Test results from the supplement of paper PMC11417369.
± gives the standard deviation of the averaged measurements. Some of the results follow.

System: PfAP2-I AP2 domain 3 (GST-tagged)
Assay: gcPBM binding intensity (ln(normalized median fluorescence intensity)); higher = stronger DNA binding
Summary of the method: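 Binding intensity is defined as the maximum Masliner-normalised natural-log median intensity across replicate spots for either probe orientation. It was measured on an Agilent 4 × 180k array of primer-extended double-stranded 36-bp intergenic genomic probes and negative controls, to which GST-tagged P. falciparum DNA-binding domains made in E. coli were applied for 1 h in 1× PBS with 1% milk, 0.2 mg/ml BSA, 0.5% salmon testes DNA and 0.03% Triton X-100. Detection was by Alexa488 anti-GST antibody and scanning at 488 nm.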

Row | Sequence | gcPBM binding intensity (ln)
1 | AAAAGAATATATAATTGTACTTAAAATATAATTAAG [XGTACX_site4484] | 7.61 ± 0.27
2 | TATTTTAACTTCTCATGTACATATATTATGTCTATA [XGTACX_site249] | 8.06 ± 0.46
3 | CTTTGTAGTATATTAACACACAACTATTTATAATAT [CACACA_site3934] | 7.7 ± 0.5
4 | TATCATAAACTTCCTTACTATACTTTTCTTATTCAT [CACACA_negctrl_site1341] | 7.91 ± 0.45
5 | TAAAAAGGAAAACACACACACACATATATATATATA [CACACA_site3588] | 9.49 ± 0.34
6 | ATTTTTAAGCATATCAAAAAAAAAAAAAAAATTAAT [CACACA_negctrl_site980] | 7.49 ± 0.45
7 | TTACTAAAAATTATTAATAAATAATAATTATAAATT [GTGCAC_negctrl_site310] | 7.26 ± 0.39
8 | TTATTATTAAGACACACACACAAAAAAAAAAAAAAA [CACACA_site6805] | 8.21 ± 0.54
9 | TTTCCAATTAGTTTTGCATGTTGAAAAAATGTTGGA [TGCATGCA_site1035] | 7.71 ± 0.52
10 | TAACATATCTTTAATACACACTTAAAAAAGTACTTA [CACACA_site4532] | 7.82 ± 0.35
11 | GGAAACACAATATATACACACATATATATATATATA [CACACA_site235] | 9.09 ± 0.58
12 | ACACTTAAATATTGTTGTACAAAATGATAAAATGTA [XGTACX_site4588] | 7.87 ± 0.42
13 | TTATATAACCCTCATGCATGCTAAGAAAAAAAAAAC [TGCATGCA_site936] | 8.13 ± 0.75
14 | ATTTATATTATAATATGTACACAAAAAAAATTAGGA [XGTACX_site565] | 8.32 ± 0.2
15 | ACCATACATACATACACACACACACCCATATATATA [CACACA_site2917] | 8.72 ± 0.42
16 | TTTCATGTTTTAAAGTGTACATAAATATATTATATG [XGTACX_site3367] | 7.91 ± 0.51
17 | TTGTTAGAGTATATTGAAAGGATAACCTTTTTTTAT [XGTACX_negctrl_site122] | 7.43 ± 0.75
18 | TTTTTAATAAAATGATTGATAATTATTAAATTAAAA [CACACA_negctrl_site488] | 7.17 ± 0.39
19 | TTGTGTTTGCGTAAATGTACGGAAAGACTTGAAGAC [XGTACX_site7235] | 8.41 ± 0.61
20 | AGCCATTATAATTCTTGTACATAATATAGCTATTTT [XGTACX_site1723] | 7.92 ± 0.61
21 | GAGCACCAAAATATATGTACATATGATAAATGTGAA [XGTACX_site1130] | 7.94 ± 0.62
22 | ACATATATATAATATATATTTTTCGTGTGGTGTCAC [CACACA_negctrl_site543] | 7.76 ± 0.38

Row | Sequence | gcPBM binding intensity (ln)
23 | TCACTTTTATAATATAATATTCTATATCTTATTTTT [GTGCAC_negctrl_site717] | 7.47 ± 0.47
24 | TTTTTTATTTTATTTTTTTCTGCTTATCCACATTAG [XGTACX_negctrl_site108] | 7.75 ± 0.41
25 | ATCATTGAAGTTAAAAATATAAAGTATTCAGAAGGG [XGTACX_negctrl_site560] | 7.78 ± 0.52
26 | AATATATATATAGGATGTACACATAATTCAAATATA [XGTACX_site2755] | 7.83 ± 0.35
27 | TTGTGAATAACTAAGAAGAAAAAGATAAATATGTAT [TGCATGCA_negctrl_site388] | 7.98 ± 0.83
28 | TATTCATGCATATACACACACATATATTTATATTTT [CACACA_site7786] | 8.37 ± 0.52
29 | AATAATATTGAAATGTGTACGTATTTATATTTTATG [XGTACX_site8252] | 7.83 ± 0.27
30 | TTTTTCTTTTTTACAGTGCATAAATATATGTATTGT [GTGCAC_site9399] | 10.4 ± 0.45
31 | TTTTGTTATATTCAATATTTATATATTATAAATATA [CACACA_negctrl_site1705] | 7.75 ± 0.49
32 | TAGATACATACACGCACACACATATATAAATAAATA [CACACA_site6157] | 8.38 ± 0.085
33 | AAAAAAAACAGACACACACACATACACATACATACA [CACACA_site2857] | 8.04 ± 0.3
34 | TAATTATGTACTATTATACACACGTTTAATTGTAAA [CACACA_site206] | 7.89 ± 0.25
35 | AATAATATATGGTGTACACAAAAGTATAAATAATTT [CACACA_site5338] | 8.72 ± 0.6
36 | TATAAAAAAATAATAAATAAATAAAAAGATTTCTTT [TGCATGCA_negctrl_site122] | 7.2 ± 0.63
37 | TAGATACAGAAACACACACACACATACATATATACA [CACACA_site3437] | 7.8 ± 0.38
38 | TTATGGAGAGTTATATGTACGAAAAATATGTATAAG [XGTACX_site515] | 8.03 ± 0.61
39 | AGAATTATTGTTAATGCATGTGGAAGTTAAAATATT [TGCATGCA_site188] | 8.48 ± 0.69
40 | TATTTAAATTGTAAGTGTACATATATAAATGTAAAA [XGTACX_site1609] | 7.99 ± 0.2
41 | TATATAGTAATTTATTCACACAATTGGCACACCTCA [CACACA_site4679] | 8.17 ± 0.47
42 | TATAATATATATTTGTGTCCACAACATTTTTAATAT [XGTACX_site2089] | 7.91 ± 0.33
43 | TTTTTTTATTAAAAATGTACAAAAATGAAAAAATAA [XGTACX_site8279] | 8.15 ± 0.3
44 | CATATAATTTTATGGGTGCATTTTTTTGTAAGACCA | 10.1 ± 0.58

Row | Sequence | gcPBM binding intensity (ln)
45 | ATTTAATTTTTTTTTTTTTTTTTTCAATCCCCTTTT [CACACA_negctrl_site1013] | 7.42 ± 0.54
46 | TTTTAAACAAAAATTTGTACACAATAATTAAATATA [XGTACX_site6755] | 7.79 ± 0.32
47 | CATTTTAAAGAAAATACACACAAAAATAAATATATA [CACACA_site1395] | 7.59 ± 0.53
48 | TAATAATAAATTGGTTGTACAACCTTATACAGAATA [XGTACX_site2592] | 7.76 ± 0.39
49 | ACACAAAAAATAAAAATATATATATATTATATATAT [CACACA_negctrl_site1489] | 8.3 ± 0.3
50 | TAAAAAAATATATATACATGCATAGAAAAAAAAAAA [TGCATGCA_site552] | 7.92 ± 0.91
51 | TTTATACACAAAAAATGTACATATATATAATGAATT [XGTACX_site1195] | 7.97 ± 0.57
52 | CGTTTATATAGTGATGCATGCATTGTTAACATGGTT [TGCATGCA_site418] | 7.99 ± 0.67
53 | CGCACAAAAATATACACACACACATATATATTTATT [CACACA_site3645] | 7.87 ± 0.45
54 | TGTATGTCTTTATTTTGTACACAATATAAAAAATTA [XGTACX_site5441] | 8.04 ± 0.22
55 | TTTAATTTTTTTTAAACACACACATTACATTCAAAA [CACACA_site7926] | 7.82 ± 0.41
56 | AATATATAATTTTATAGTACATAATAAAAGAACAGG [XGTACX_site724] | 8.29 ± 0.42
57 | TTATATTATGCTTGAATGCACTTTGAAGCACAATCT [GTGCAC_site9789] | 10.25 ± 0.071
58 | TATTCAACATAATATGCACACAAAAATTATGGAACG [CACACA_site8660] | 8.795 ± 0.021
59 | ATCACATAAAATATGAATATATATTTTATATATATA [CACACA_negctrl_site340] | 8.31 ± 0.41
60 | TATATTTACGTATGTCGAACGTTATTTTGAACAACC [CACACA_negctrl_site1261] | 7.75 ± 0.58
61 | TTAAAAAAAAAAAGGTGTACTATAATTTAATATCAC [XGTACX_site6316] | 8.28 ± 0.26
62 | TGGGTAAACAGACACACACACATATAGATTTATATA [CACACA_site7026] | 7.71 ± 0.62
63 | CTTCCAATAAAAAATGCACACATTGAAAATATTGAA [CACACA_site2688] | 8.44 ± 0.34
64 | AAATTATATGAACATTGTACTTTATATATGTAAGAA [XGTACX_site1611] | 8 ± 0.24
65 | ACACACATATATACATGTACATATATATATATATAT [XGTACX_site451] | 9.38 ± 0.75
66 | TATTTTGTTCTTTCCACACACAAATACAGATATTGT [CACACA_site6097] | 8.07 ± 0.72

Row | Sequence | gcPBM binding intensity (ln)
67 | TCTTATCCATATATTACACACTATAAATAGAAATTA [CACACA_site6274] | 7.93 ± 0.47
68 | ATTTGTATATATTAATGTACACACATGCGTATGTTC [XGTACX_site7579] | 7.83 ± 0.66
69 | TATAAATATAAATATACACACATATATTTATTTATA [CACACA_site6890] | 7.39 ± 0.23
70 | AACAGTAACATTGAATGTACTTAATTTTAAGAAAAT [XGTACX_site2971] | 7.61 ± 0.42
71 | ACACATAATATGTGTAGTACTTTTTCTTTAACATTA [XGTACX_site1436] | 7.92 ± 0.45
72 | TTAAAATAAAGAAAATGTACATAAATTAAAATAAAG [XGTACX_site2281] | 8.03 ± 0.65
73 | TTTTTTTTTTTTTTTATAGTACATTACCAAAAAAAA [CACACA_negctrl_site1197] | 8.16 ± 0.71
74 | ATTTATTGACTATTTACACACATATTTATTATAATA [CACACA_site1624] | 8.11 ± 0.49
75 | TATATTTTGTTCTGTTGTACTAAAAAAATCTTTATA [XGTACX_site8372] | 7.76 ± 0.38
76 | TTACTTTTAACAAATGTGCGCAGTTATCACACAGAC | 8.67 ± 0.3
77 | ACAAAACAAAAAAACTCACACATATACGGCATGTCA [CACACA_site5608] | 7.6 ± 0.64
78 | ATATATATATATATATGTACTAAGAATTCTTTAAAA [XGTACX_site8476] | 9.55 ± 0.54
79 | ATTTATTTATTTATATGTACATATTTAAAGAGTTCA [XGTACX_site7631] | 7.82 ± 0.55
80 | ATTATACATATATAAGTGCAATAATGTTTTTTCCTT | 10.5 ± 0.57
81 | TATACATATGAAAATACACACATACATACATATATA [CACACA_site8484] | 7.64 ± 0.3
82 | AAGGTATATATAACTACACACTTATATATAATCTAA [CACACA_site92] | 7.53 ± 0.68
83 | ATACATATTTTACATTCACACAACAAATTTATATTT [CACACA_site4700] | 7.95 ± 0.67
84 | AGGAACAAAATATACTGTACTTTATTATTTTCAAAA [XGTACX_site4421] | 7.74 ± 0.53
85 | AACAGACAGAAACACACACACATATATATATATATA [CACACA_site3394] | 9.24 ± 0.23
86 | TAATAAAATATGTACACACATACACCCATATATATA [CACACA_site1220] | 8.24 ± 0.52
87 | TGTAGTCTGGAGAAAAGTACATAGTATCTGGTAACC [XGTACX_site2025] | 7.77 ± 0.78
88 | ATTTTCCAAAATAATTGTACAGGAAAGAAATAATTA [XGTACX_site7424] | 7.88 ± 0.49
